{
  "source": "PubChem BioAssay AID2147",
  "about": "(National Center for Advancing Translational Sciences (NCATS), 2009)",
  "note": "Hit rate of the full screen: of about 230,000 compounds, about 3,600 (1.6%) were called active. The shares of active, inactive and inconclusive entries below differ from those in the screen. The call rests on the fitted dose curve; in most records, active means well fitted inhibition curve with a large enough effect (not every such curve was filed as active); inconclusive means small, poorly fitted or top-dose-only effect, or another doubt; inactive means no such curve, though single readings can be large or run the other way. Potencies beside an inconclusive call are fits to weak or partial responses and may not hold up. Further: nearly all actives have a fitted effect of over 50% in size. Potency means the concentration at half of the fitted maximal effect; tags describe the fitted curve by direction and shape.",
  "data": [
    {"target": "Lysine-specific demethylase 4E (Homo sapiens) (UniProt B2RXH2)", "sequence (B2RXH2 whole entry, looked up, the tested form may be a part)": "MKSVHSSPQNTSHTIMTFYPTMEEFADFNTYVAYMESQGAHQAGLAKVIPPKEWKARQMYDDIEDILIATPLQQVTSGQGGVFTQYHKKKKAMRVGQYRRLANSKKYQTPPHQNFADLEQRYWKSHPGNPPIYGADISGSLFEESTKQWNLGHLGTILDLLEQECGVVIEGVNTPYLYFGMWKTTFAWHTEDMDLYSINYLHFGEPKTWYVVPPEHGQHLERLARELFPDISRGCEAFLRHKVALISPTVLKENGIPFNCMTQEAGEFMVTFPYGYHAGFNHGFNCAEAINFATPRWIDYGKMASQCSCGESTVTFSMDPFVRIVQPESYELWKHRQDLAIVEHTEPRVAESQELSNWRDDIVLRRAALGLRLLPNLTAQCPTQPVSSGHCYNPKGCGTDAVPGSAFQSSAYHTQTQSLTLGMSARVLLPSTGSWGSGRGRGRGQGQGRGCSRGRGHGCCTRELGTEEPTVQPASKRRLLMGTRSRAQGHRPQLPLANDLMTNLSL", "assay": "qHTS Assay for Inhibitors of Human Jumonji Domain Containing 2E (JMJD2E)", "details": "JMJD2E catalytic domain, FDH-coupled NADH fluorescence (FDH is formaldehyde dehydrogenase); series mostly up to 57.1 µM", "values": [
      {"smiles": "CCc1cccc(NC(=O)C2CCCN2S(=O)(=O)c2ccc3c(c2)n(C)c(=O)c(=O)n3C)c1", "note": "(stereo unspecified)", "Potency": "inactive"},
      {"smiles": "CN(C)CCCNCCCNC(=O)/C(=N\\O)c1ccccn1", "Potency": "inactive"},
      {"smiles": "CCCCNC(=O)CNC(=S)N(Cc1cc(OC)c(OC)c(OC)c1)C1CCCC1", "Potency": "inactive"},
      {"smiles": "Cc1ccccc1NS(=O)(=O)c1cccc(-c2nnc(-c3ccccc3)o2)c1", "Potency": "inactive"},
      {"smiles": "CCc1nnc(NC(=O)C2=NN(C3CCS(=O)(=O)C3)C(=O)CC2)s1", "note": "(stereo unspecified)", "Potency": "inconclusive: 39.8 µM [inhibitor, single point]"},
      {"smiles": "CC(C)Cc1nc2oc3c(NCCCN4CCOCC4)ncnc3c2c2c1CCC2", "Potency": "inconclusive: 15.8 µM [inhibitor, partial curve]"},
      {"smiles": "CC(C)[N+](C)(CCOC(=O)C1c2ccccc2Oc2ccccc21)C(C)C", "Potency": "inactive"},
      {"smiles": "COCCN1CCn2c(nc3cc(NC(=O)c4ccc(OC)cc4)ccc32)C1", "Potency": "inconclusive: 25.1 µM [inhibitor, single point]"},
      {"smiles": "O=C(CSc1cccc[n+]1[O-])c1cc2ccccc2o1", "Potency": "active: 31.6 µM"},
      {"smiles": "CCN1CCC(NC(=O)c2cc(OC)c(OC)cc2OC)CC1", "Potency": "inconclusive: 31.6 µM [inhibitor, single point]"},
      {"smiles": "O=C(Nc1ccccc1C(=O)N/N=C/c1ccc(F)cc1)c1ccccc1Br", "Potency": "inactive"},
      {"smiles": "CCOC(=O)C1C(=O)C=C(c2ccc(Br)cc2)CC1c1ccco1", "note": "(stereo unspecified)", "Potency": "inactive"},
      {"smiles": "O=S(=O)(c1ccc(Cl)c(NC(=S)N/N=C/c2ccc(O)cc2)c1)N1CCOCC1", "Potency": "inconclusive: 39.8 µM [inhibitor, single point]"},
      {"smiles": "O=C(CSc1nnc(-c2cccs2)o1)N1CCCCC1", "Potency": "inconclusive: 28.2 µM [inhibitor, partial curve]"},
      {"smiles": "N#CC1(C#N)C(c2ccccc2)OC23CCCCC2C1(C#N)C(=N)O3", "note": "(stereo unspecified)", "Potency": "inconclusive: 28.2 µM [inhibitor, partial curve]"},
      {"smiles": "Cc1ccccc1-n1nc(C)c(N=O)c1N", "Potency": "inactive"},
      {"smiles": "CC(=O)/C=C(\\C)Nc1ccccc1O", "Potency": "inconclusive: 25.1 µM [inhibitor, single point]"},
      {"smiles": "CC(=O)N1N=C(c2cccs2)CC1c1cccc([N+](=O)[O-])c1", "note": "(stereo unspecified)", "Potency": "inconclusive: 35.5 µM [inhibitor, single point]"},
      {"smiles": "NC(N)=NC1=NC(=O)/C(=C/c2ccccc2-n2cccn2)S1", "Potency": "inconclusive: 22.4 µM [inhibitor, partial curve]"},
      {"smiles": "O=C(Cc1ccc(-n2c(=O)c3ccccc3n(CC(=O)Nc3ccc(F)cc3F)c2=O)cc1)NCc1ccco1", "Potency": "inconclusive: 39.8 µM [inhibitor, single point]"},
      {"smiles": "C(=C\\c1nc2ccccc2[nH]1)/c1ccccc1", "Potency": "inconclusive: 28.2 µM [inhibitor, partial curve]"},
      {"smiles": "Cn1c2ccccc2c2cnn(CC(=O)O)c(=O)c21", "Potency": "inconclusive: 28.2 µM [inhibitor, single point]"},
      {"smiles": "CCOc1ccc(NC(=O)c2nnn(CC(=O)Nc3ccccc3OCC)c2N)cc1", "Potency": "inconclusive: 35.5 µM [inhibitor, single point]"},
      {"smiles": "Cc1ccc(C(=O)C2CCN(CC(=O)N3CCN(c4ccc(F)cc4)CC3)CC2)cc1", "Potency": "inactive"},
      {"smiles": "COc1ccc(CCc2nc(C)ccc2O)cc1", "Potency": "inconclusive: 25.1 µM [inhibitor, single point]"},
      {"smiles": "Cc1ccc(C)n1CCN1CCN(C(=O)c2ccc(Cl)cc2)CC1", "Potency": "inconclusive: 31.6 µM [inhibitor, single point]"},
      {"smiles": "O=C(CCC1CCCN(C(=O)CC2=CCCCC2)C1)N1CCN(c2ccccn2)CC1", "note": "(stereo unspecified)", "Potency": "inconclusive: 28.2 µM [inhibitor, partial curve]"},
      {"smiles": "N#C/C(C(N)=O)=C1/SC=C(c2ccccc2)N1c1ccccc1", "Potency": "inconclusive: 35.5 µM [inhibitor, single point]"},
      {"smiles": "Cc1cc(=O)[nH]c(SCc2nc3ccccc3n2Cc2ccccc2)n1", "Potency": "inconclusive: 39.8 µM [inhibitor, single point]"},
      {"smiles": "Clc1ccc2c(c1)c1ccccc1n2CN1CCOCC1", "Potency": "inconclusive: 35.5 µM [inhibitor, single point]"},
      {"smiles": "CCCCn1c(=O)nc2n(-c3ccccc3)c3ccccc3cc-2c1=O", "Potency": "inconclusive: 14.1 µM [inhibitor, partial curve]"},
      {"smiles": "CC1CCc2nc(NC(=O)C3CCCO3)sc2C1", "note": "(stereo unspecified)", "Potency": "inactive"},
      {"smiles": "c1cncc(-c2nc3c(ccc4ccccc43)[nH]2)c1", "Potency": "inconclusive: 28.2 µM [inhibitor, partial curve]"},
      {"smiles": "O=C(CSCc1nc2ccccc2[nH]1)Nc1ccc2ccccc2c1", "Potency": "inconclusive: 35.5 µM [inhibitor, single point]"},
      {"smiles": "CCCn1c(-c2ccc(F)cc2)nc2c(N(C)CCN(C)C)nc(C)nc21", "Potency": "inconclusive: 31.6 µM [inhibitor, single point]"},
      {"smiles": "Cc1ccc2c(c1C)NC(C(=O)O)C1CC=CC21", "note": "(stereo unspecified)", "Potency": "active: 20 µM"},
      {"smiles": "CCn1ccnc1CN(C)C(=O)c1cc(COc2c(F)cccc2F)on1", "Potency": "inconclusive: 39.8 µM [inhibitor, single point]"},
      {"smiles": "CCOC(=O)c1c(NS(C)(=O)=O)sc2c1CCC(C)C2", "note": "(stereo unspecified)", "Potency": "inconclusive: 31.6 µM [inhibitor, single point]"},
      {"smiles": "COc1ccc(/C=N/NC(=O)C(C)n2cnc3ccccc3c2=O)cc1", "note": "(stereo unspecified)", "Potency": "inactive"},
      {"smiles": "N#Cc1cnn2cc(CCN3CCOCC3)c(-c3ccc(F)cc3)nc12", "Potency": "inconclusive: 35.5 µM [inhibitor, partial curve]"},
      {"smiles": "Cc1nc2c(C(=O)NCc3ccc4c(c3)OCO4)cnn2c(C)c1Cc1ccc(F)cc1Cl", "Potency": "inconclusive: 4.47 µM [inhibitor, single point]"},
      {"smiles": "O=C(NCCN1CCOCC1)c1cc2c(=O)n3ccccc3nc2n1Cc1ccccc1", "Potency": "inconclusive: 31.6 µM [inhibitor, partial curve]"},
      {"smiles": "Cc1c(NC(=O)/C(C#N)=C/c2ccccc2)c(=O)n(-c2ccccc2)n1C", "Potency": "inactive"},
      {"smiles": "O=S1(=O)NC2CCCCCN2c2ccc(F)cc21", "note": "(stereo unspecified)", "Potency": "inconclusive: 25.1 µM [inhibitor, partial curve]"},
      {"smiles": "C=CCc1cccc2cc(C(=O)OCC)c(=O)oc12", "Potency": "inconclusive: 28.2 µM [inhibitor, partial curve]"},
      {"smiles": "CCn1ncc(/C=N/N=C2\\CCC3C4CCc5cc(O)ccc5C4CCC23C)c1C", "note": "(stereo unspecified)", "Potency": "inactive"}
    ]}
  ]
}
